Source: the supplement of paper PMC9174493
The list shows a part of the results. Single values of this set are uncertain. Values with irradiation are relative to irradiated vehicle.

What follows are compounds tested on A549-Dual (assay: ISRE reporter (Lucia luciferase) activity, viability-corrected, relative to vehicle (fold change vs vehicle); higher = more activation of STING-IRF / NF-kB immune response reporter). Details: 10 µM; irradiation: none.

Structure (SMILES)	ISRE reporter
CC(C)(C(=O)O)c1ccc(C(O)CCCN2CCC(C(O)(c3ccccc3)c3ccccc3)CC2)cc1.Cl (stereo unspecified) [Fexofenadine HCl]	0.844
CCCCCCCCCCCCN1CCCCCC1=O [Laurocapram]	0.345
COc1ccc(OC)c(C(O)CNC(=O)CN)c1.Cl (stereo unspecified) [Midodrine hydrochloride]	0.886
CC1OC(OC2C(O)C(OCCc3ccc(O)c(O)c3)OC(COC3OC(CO)C(O)C(O)C3O)C2OC(=O)/C=C/c2ccc(O)c(O)c2)C(O)C(O)C1O (stereo unspecified) [Echinacoside]	0.372
O=C(O)CCCCCCCC(O)C(O)CCCCCCO (stereo unspecified) [Aleuritic Acid]	0.548
O=C([O-])CCC(=O)OCC(NC(=O)C(Cl)Cl)C(O)c1ccc([N+](=O)[O-])cc1.[Na+] (stereo unspecified) [Chloramphenicol sodium succinate]	0.894
